Test results reported in the supplement of paper PMC12217912.
Some of the results follow. Sequences were assembled here from the parent chain. Values near 0.05 are background.

B1: TEV protease; numbered along this chain (parent)
chain: MGESLFKGPRDYNPISSSICHLTNESDGHTTSLYGIGFGPFIITNKHLFRRNNGTLVVQSLHGVFKVKDTTTLQQHLVDGRDMIIIRMPKDFPPFPQKLKFREPQREERICLVTTNFQTKSMSSMVSDTSCTFPSGDGIFWKHWIQTKDGQCGSPLVSTRDGFIVGIHSASNFTNTNNYFTSVPKNFMELLTNQEAQQWVSGWRLNADSVLWGGHKVFMVKPEEPFQPVKEATQL

Variants of: B1
Test: raw area under fraction-flipped curve 0-4 h after induction (AUC4h, not background-subtracted), DNA-recorder readout of cleavage of the substrate (dimensionless); higher = more cleavage of the substrate by the protease variant
Conditions: temperature: 34 °C; time window: 0-4 h after rhamnose induction
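Also: Bxb1 expression induced with 0.2% (w/v) L-rhamnose at OD600 near 0.5, cultures sampled hourly, flipped fraction per protease–substrate barcode pair counted by paired-end Illumina sequencing.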

Variant	area with substrate CNLYFQS	area with substrate DNLYFQS	area with substrate FNLYFQS	area with substrate GNLYFQS	area with substrate INLYFQS	area with substrate LNLYFQS	area with substrate MNLYFQS	area with substrate NNLYFQS	area with substrate PNLYFQS	area with substrate RNLYFQS	area with substrate SNLYFQS	area with substrate TNLYFQS	area with substrate WNLYFQS	area with substrate YNLYFQS	area with substrate HNLYFQS	area with substrate KNLYFQS	area with substrate QNLYFQS	area with substrate VNLYFQS
R204G	0.069	0.0803	0.0555	0.069	0.064	0.0646	0.0436	0.0534	0.0794	0.0703	0.0753	0.0881	0.0649	0.0636	–	–	–	–
R204M	0.0675	0.0736	0.0625	0.0692	0.0671	0.0674	0.0595	0.0752	0.0714	–	0.0518	0.0795	0.0533	–	0.0548	0.0726	–	–
R204V	0.0698	0.104	0.055	0.0592	–	0.0689	0.05	0.0547	0.0704	0.0445	0.0632	0.0686	0.0638	0.0681	0.0606	0.076	0.0274	0.0646
L205H	0.0498	0.0847	–	0.0647	–	0.0634	–	0.06	–	–	–	–	0.0538	–	–	–	0.0585	–
A207K	0.0657	0.0852	0.0628	–	0.0646	0.0548	0.0753	–	–	–	–	–	0.0469	–	0.0722	–	–	–
A207T	0.0832	0.0595	–	0.0612	0.0749	0.0488	–	–	0.07	0.0565	0.0691	0.0744	0.0677	0.0357	0.0698	0.0896	–	–
S209D	0.0671	0.0737	–	–	0.0552	–	–	–	0.0622	–	–	0.074	0.0613	0.0492	–	–	–	–
V210N	0.0571	0.0761	–	0.0641	0.0556	0.0612	0.0551	0.0565	0.058	–	–	0.0588	0.0654	0.065	0.067	–	–	–
L211M	0.064	0.0875	0.0525	0.0789	0.0922	–	–	0.0893	0.11	0.0604	0.0683	0.0684	0.0642	–	0.0602	0.0655	–	0.0674
W212G	0.0564	0.0622	0.0197	–	0.0503	–	0.0832	0.0672	0.0534	–	0.0567	–	0.0663	–	0.056	0.0569	–	0.0666
G213R	0.0369	0.0599	0.054	0.062	–	0.0584	–	0.055	–	0.0495	0.0613	0.0671	0.0606	0.0577	0.0608	0.0645	–	0.0598
G214D	0.051	0.0552	–	0.0454	0.0627	0.0348	–	0.0562	0.058	–	0.0893	0.054	0.0459	–	0.0717	–	–	0.0561
F218N	0.0439	0.047	0.0578	0.0489	–	0.0587	–	–	0.0663	–	–	0.0728	0.0685	0.0819	0.0467	0.0663	–	0.0593
M219T	0.058	0.0673	–	0.0665	–	–	–	0.048	0.0719	–	–	0.0663	–	0.0569	0.0549	0.0715	0.0576	–
M219W	0.075	0.0823	0.0594	–	0.0669	0.0669	0.0652	0.0563	0.0707	0.0606	0.0641	0.06	0.0575	0.0557	0.0687	0.0703	–	–
V220E	0.0527	0.0658	0.0615	0.0759	–	0.0536	0.092	–	0.0736	–	0.0548	0.0688	0.0656	0.0676	0.0496	0.0755	–	–
V220G	0.0621	0.0771	0.0524	0.0837	0.0584	0.0656	–	–	0.0732	0.0791	0.094	0.053	0.061	0.0662	0.068	0.0584	–	–
K221L	0.0593	0.0917	0.0621	0.0655	–	–	0.0581	0.0746	0.0603	–	0.0642	0.0871	0.0565	0.0811	0.054	0.0681	0.0662	0.0648
K221S	0.0587	0.0518	0.0637	–	–	0.0492	0.0634	0.0643	–	–	0.0466	0.0613	0.0569	0.0596	0.0421	0.0556	–	0.0676
P222A	0.0596	0.0593	–	–	–	–	0.0472	–	0.08	–	0.0741	0.052	0.0312	–	0.0642	–	0.071	0.063
P222I	0.0772	0.0835	–	–	0.0666	0.0596	0.0562	0.0663	0.0582	–	0.0941	0.056	–	0.0557	0.0567	0.0631	–	–
E223N	0.0837	0.0859	0.0661	0.0743	–	0.0684	0.0601	0.076	–	0.0657	0.0537	0.0673	0.0631	–	0.0667	0.0722	–	–
E223Y	0.0705	0.0779	0.0619	0.0407	0.0584	0.0595	0.0691	0.07	0.0494	–	0.0591	–	0.0588	0.0632	0.0579	–	0.0559	0.0696
P225C	0.0406	0.0799	0.0644	0.0498	–	–	0.0879	–	0.0643	–	0.0607	0.0864	0.0594	–	0.0686	0.0794	0.0897	–
P225K	0.0604	0.0707	0.057	0.0708	0.0638	0.0608	0.0658	0.0637	0.0748	–	–	0.066	0.0759	0.0844	0.0715	0.0664	0.0708	–
F226E	0.0669	0.0977	0.0704	0.0718	–	0.0266	–	0.0684	0.0597	0.0665	–	0.0664	0.0608	0.0385	0.0619	0.0692	–	–
F226G	0.0643	0.118	–	–	0.0844	0.0334	–	0.0718	0.0624	–	0.0634	0.0502	0.0667	0.066	0.0424	0.0583	–	0.0791
